The supplement of paper PMC3334620
Whole data set: some 33,000 sequences, median “E-score (-0.5 to 0.5)” near -0.041, cut for the highest 2% near 0.37. This is one part of the list.

biological target: T1, Ecm22 (UniProt Q05958); experiment: PBM E-score (8-mer binding enrichment) (E-score (-0.5 to 0.5)); higher = stronger / more preferred TF binding; most listed sequences are background and not binding sites; settings: protein concentration: 200 nM; construct: GST-full length
T1 sequence: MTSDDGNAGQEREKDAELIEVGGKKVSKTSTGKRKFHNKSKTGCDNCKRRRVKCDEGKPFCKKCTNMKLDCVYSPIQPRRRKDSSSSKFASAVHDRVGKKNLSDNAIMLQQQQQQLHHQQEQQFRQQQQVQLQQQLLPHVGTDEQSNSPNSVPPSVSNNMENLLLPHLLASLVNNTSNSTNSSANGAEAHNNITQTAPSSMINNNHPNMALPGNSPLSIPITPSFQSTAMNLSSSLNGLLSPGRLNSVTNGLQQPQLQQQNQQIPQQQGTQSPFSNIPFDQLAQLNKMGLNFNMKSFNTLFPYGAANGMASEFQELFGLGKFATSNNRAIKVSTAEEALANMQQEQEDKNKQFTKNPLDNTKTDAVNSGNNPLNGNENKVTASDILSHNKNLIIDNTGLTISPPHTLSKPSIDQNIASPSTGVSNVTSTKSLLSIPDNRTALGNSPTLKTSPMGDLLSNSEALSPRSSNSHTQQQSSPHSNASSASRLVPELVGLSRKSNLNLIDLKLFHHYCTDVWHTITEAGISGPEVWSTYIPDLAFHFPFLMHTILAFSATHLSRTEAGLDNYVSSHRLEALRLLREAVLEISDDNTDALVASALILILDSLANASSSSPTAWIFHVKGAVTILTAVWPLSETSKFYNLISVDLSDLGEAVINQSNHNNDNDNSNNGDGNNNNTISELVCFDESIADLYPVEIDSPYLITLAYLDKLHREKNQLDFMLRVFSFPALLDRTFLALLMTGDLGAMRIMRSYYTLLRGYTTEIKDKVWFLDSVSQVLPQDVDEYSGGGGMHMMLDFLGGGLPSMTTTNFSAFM
In short: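 For each ungapped eight-base word taken together with its reverse complement, the Universal PBM Analysis Suite assigned an E-score. Binding data came from GST-tagged yeast transcription factors, applied at about 100-200 nM, on universal all-10-mer Agilent arrays made double-stranded by primer extension. Fluorescent anti-GST marked bound protein, and scans were normalised with masliner.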

| Sequence | PBM E-score |
| --- | --- |
| CTTGTAAC | 0.184 |
| CTATAAGA | -0.128 |
| ACCACCAG | -0.0822 |
| GCCCTTAC | -0.258 |
| ACTCGAGA | 0.0745 |
| CAGGGGCC | -0.292 |
| GCGGGCAC | -0.172 |
| CTCCTCAG | -0.0882 |
| GTCATCGA | -0.0778 |
| TCCGTCGA | 0.0392 |
| CTTCCAGC | -0.288 |
| TCGAAACA | 0.0188 |
| AGTTTGGG | -0.23 |
| AGCGGATC | 0.243 |
| AGCAAAAC | -0.151 |
| AATGATGC | 0.0148 |
| AATCAGTG | -0.197 |
| CCGTTAAG | 0.189 |
| TGCAATAA | -0.0622 |
| GATCAGCC | -0.181 |
| AACGTGAC | -0.049 |
| CGGATTGA | 0.0342 |
| ATTGACGG | 0.0598 |
| CGGTAGAA | -0.129 |
| ACCCGCTA | -0.194 |

| Sequence | PBM E-score |
| --- | --- |
| ATTCTGTA | -0.0226 |
| AGAAGTAA | -0.177 |
| CGACACCC | 0.0694 |
| CATGTCCC | -0.075 |
| CGCATCTA | 0.145 |
| AAATTATG | -0.098 |
| CTGCCATC | 0.117 |
| AAGTGGTC | -0.127 |
| GAGGTACC | 0.083 |
| GATACTGA | 0.0803 |
| GCTGCTAC | 0.124 |
| CCATCTAG | -0.193 |
| CGTTTACA | 0.405 |
| GGGCCGAC | -0.119 |
| CCCATTAC | -0.101 |
| ACTCGGCG | 0.165 |
| CTTGCTAA | -0.194 |
| ACCGTATG | 0.325 |
| ACCAAGAT | -0.0873 |
| AGTGAAGG | -0.194 |
| CCACCAAA | -0.13 |
| CCATGGGA | -0.169 |
| AGCCCCAT | -0.174 |
| CCTGGGTA | -0.162 |
| CATGAGAA | -0.109 |

| Sequence | PBM E-score |
| --- | --- |
| CTTCCGTC | 0.0605 |
| CCGGGGCA | -0.174 |
| AAAACCCT | -0.223 |
| CCATTCAC | 0.0859 |
| CATGCGAG | 0.239 |
| AAGAAAGG | -0.12 |
| AGCTTCAG | -0.343 |
| AGAAAATG | 0.0291 |
| GCTGAGCC | -0.136 |
| ACAGGGAT | -0.0808 |
| ATCGAAGC | 0.0667 |
| ACCAACCA | -0.00535 |
| CGTCGTTC | 0.479 |
| CAGGGACC | -0.0874 |
| CAGGTAAA | 0.00568 |
| CACACCGA | 0.146 |
| ACATAACT | -0.114 |
| GGTTGACA | -0.115 |
| ACCGATGC | 0.159 |
| CAAGAGCG | 0.0517 |
| GTAGACAC | -0.043 |
| CGGTGTGA | 0.0529 |
| GAATGCGC | 0.112 |
| ATGACTAA | -0.0589 |
| CCTGGGGA | -0.315 |

| Sequence | PBM E-score |
| --- | --- |
| ACAGGCAA | -0.0236 |
| GACGGGTA | -0.129 |
| CATAGGGC | -0.204 |
| ATATGATC | 0.0897 |
| AGAGCGGC | -0.228 |
| ATTGCCAA | 0.0792 |
| GTGAAGCA | -0.0753 |
| GCCAAAGA | -0.124 |
| AATGTGGA | -0.0638 |
| CATTCAGG | -0.293 |
| AAGGAAAG | -0.0693 |
| CCCTTATA | 0.0391 |
| AACGGGGC | 0.223 |
| CTCAAGTC | -0.126 |
| AACGTCAA | 0.0535 |
| CTTGTGAA | -0.226 |
| AAACGCCA | 0.00397 |
| ATAGGACC | -0.133 |
| AATATGGT | 0.116 |
| AAGGTGCA | -0.231 |
| CGTAGTCC | 0.0185 |
| CTCATGCA | -0.0852 |
| TTATTAAA | 0.0128 |
| GGCATGCC | 0.212 |
| AGTAGCCA | -0.266 |

| Sequence | PBM E-score |
| --- | --- |
| ATTTTCTC | -0.117 |
| GATTGATA | -0.0432 |
| AGATTCGA | -0.118 |
| AAAGACCT | -0.212 |
| CTGATAGA | -0.0586 |
| CATGCTGC | -0.168 |
| ATAAGATG | 0.0715 |
| CATATGTC | 0.0627 |
| ATACCACC | -0.0197 |
| CATGCTAG | -0.0159 |
| CTCTATCC | -0.157 |
| GGTTCTAC | 0.00375 |
| GTCGACTA | 0.102 |
| CTTGCTCC | -0.205 |
| AATTCAAG | 0.039 |
| ACTTGGGA | -0.216 |
| GCTCAAAA | -0.103 |
| CACTCTAC | -0.0474 |
| ACCAGCAG | -0.232 |
| TCAAACCA | 0.071 |
| CGGTGGTC | 0.193 |
| ACATTCAT | -0.178 |
| AGCCAGGA | -0.0313 |
| ATCGGGCA | -0.122 |
| GGCTCACC | -0.219 |

| Sequence | PBM E-score |
| --- | --- |
| TGCAACAA | -0.0872 |
| GTATTAGA | 0.173 |
| GCGGAGCC | 0.0562 |
| GATGGGAA | -0.122 |
| AGGTTAAG | -0.253 |
| CGCCCCGA | 0.0029 |
| CCTGAAGG | -0.243 |
| GCACAAAC | -0.0651 |
| CCCCAACA | -0.243 |
| CGGCCTAA | 0.0558 |
| GGCGAGCC | -0.0648 |
| CGGTAACG | 0.19 |
| CTAGCGAA | 0.00449 |
| AGATGAAA | 0.0166 |
| CATCGATC | -0.00764 |
| CAGACGCA | -0.169 |
| AGTTCCAG | -0.172 |
| GTGACGTA | 0.114 |
| AGAGTTCG | 0.166 |
| CGTAAGGA | 0.271 |
| ATCGATGA | -0.0837 |
| CCTCTCCC | -0.214 |
| CCAGTCGC | 0.0247 |
| ACCTACGA | 0.24 |
| AGTGCCGC | -0.167 |

| Sequence | PBM E-score |
| --- | --- |
| CAGGCCTA | -0.218 |
| CACTGATA | -0.135 |
| CCTCAGAA | -0.131 |
| CAACCATG | -0.151 |
| CCGCGGCA | -0.165 |
| AGCTTGAG | -0.194 |
| GTGGCTCA | -0.251 |
| ATCTCCAG | -0.156 |
| AAAATCTG | -0.0871 |
| TAGTAGCA | 0.117 |
| CGCTTCCC | 0.169 |
| CGTATGAG | 0.354 |
| ATCTGTGA | -0.0254 |
| AAAGCACC | -0.135 |
| GATGGGCA | -0.0653 |
| CAAGTCAA | -0.126 |
| TAATGCTA | -0.208 |
| ACAGTCCA | -0.196 |
| ACAAGAGG | -0.185 |
| GGTTCCTA | -0.128 |
| CACGTCGA | -0.0843 |
| AGGTAGGC | -0.22 |
